In all, about 110,000 compounds went through this assay and about 40 (0.04%) were called active. The shares of active, inactive and inconclusive entries below differ from those in the screen. Calls come from the whole dose curve; as a rule, active = well fitted curve in the direction sought with a large enough effect in the signal ratio (not every such curve was filed as active); inconclusive = small, poorly fitted or top-dose-only effect, or a change in a side signal; inactive = flat fitted curve, though single readings scatter; the % refers to the signal ratio. Potencies of inconclusive entries are doubtful fits and often do not repeat.
Assay: IkB Signaling;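 for IkBa stabilization activation: 0% = basal untreated cells and 100% = reference inhibitor full response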
Settings: ABC-DLBCL IkBa-CBG/CBR dual luciferase ratio (green luciferase fused to IkBa over red control in OCI-Ly3 lymphoma cells), 4 h; IkBa stabilization activation: at 57.1 µM (top of the series), scaled: untreated 0%, proteasome inhibitor 100% unless noted
Summary of the method: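 In this assay, an IκBα–CBG68 fusion accumulates when IKK-driven degradation is blocked; native CBR normalizes for cell number. OCI-Ly3 cells were treated 4 h with compound and doxycycline, then green and red light read after Chroma-Glo addition.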
Potency is the fitted concentration of half-maximal effect.

| Structure (SMILES) | IkBa stabilization activation | Potency |
| --- | --- | --- |
| COc1cccc(C(=O)NC2=NCCS2)c1 | inactive: -0.138% |  |
| CCn1c(CN2CCC(C)CC2)nc2cc(NC(=O)COc3ccc(Cl)c(C)c3)ccc21 | inconclusive: -1.25% [signal inhibitor] |  |
| COc1cc(OC)c(NC(=O)CCc2c(C)nc3ncnn3c2C)cc1Cl | inconclusive: 0.798% [signal inhibitor] |  |
| CCc1ccc(-n2c(SCc3ccccc3Cl)nc3[nH]ncc3c2=O)cc1 | inconclusive: -3.06% [signal inhibitor] |  |
| Cc1cccc(NC(=O)Cn2cc(C(=O)c3ccco3)c3ccccc32)c1 | inconclusive: 7.22% [signal inhibitor] |  |
| COc1ccc(-c2oc3ncn(CCN4CCOCC4)c(=N)c3c2-c2ccc(OC)cc2)cc1 | inconclusive: -4.7% [signal inhibitor] |  |
| O=C1CN(Cc2ccccc2)C(=NCc2ccco2)S1 | inconclusive: 7.43% [signal activator] |  |
| COc1ccc(Cn2cc(S(=O)(=O)c3ccc(Cl)cc3)c(=O)c3cc4c(cc32)OCO4)cc1 | inconclusive: 10.6% [signal inhibitor] |  |
| O=C(NC1(C(F)(F)F)C(=O)Nc2c1c(=O)[nH]c(=O)n2-c1ccc(Cl)cc1)c1ccccc1F (centres undefined) | inconclusive: -0.954% [signal inhibitor] |  |
| Cc1cccc(OCC(=O)Nc2ccc(-c3nc4ccccc4o3)cc2)c1C |  | inconclusive: 15.8 µM [signal inhibitor, partial curve] |
| CC(C)CNC(=O)N1[C@H](c2cccs2)[C@@H](C)C(=O)[C@@H](C)[C@@H]1c1cccs1 | inactive: -1.12% |  |
| CCn1c(=N)n(CCOc2ccc(Br)cc2)c2ccccc21 | inconclusive: -1.7% [signal inhibitor] |  |
| COc1ccc(CC(=O)NCCc2csc(-c3cccc(C)c3)n2)cc1 | inconclusive: -3.5% [signal inhibitor] |  |
| COc1ccc(C)cc1NS(=O)(=O)c1c(C(=O)N2CCCCCC2)c(C)n(C)c1C | inactive: -1.27% |  |
| CC(=O)c1cccc(NC(=O)CC(c2ccc(C)cc2)N2Cc3ccccc3C2=O)c1 (centres undefined) | inconclusive: -0.358% [signal inhibitor] |  |
| COc1cc(S(=O)(=O)n2nnc3ccccc32)c(OC)cc1Cl | inconclusive: -2% [signal inhibitor] |  |
| CCN(C(=O)Nc1cn(CC(C)C)c(=O)c2ccccc12)c1cc(C)ccc1C | inconclusive: 4.67% [signal inhibitor] |  |
| COc1ccccc1CN1C(=O)CN(C2CCCCCC2)C(=O)C1c1ccc(F)cc1 (centres undefined) | inconclusive: -1.42% [signal inhibitor] |  |
| Cc1ccc2nc(Nc3ccc(C)c(F)c3)c3nncn3c2c1 | inactive: -0.727% |  |
| CCn1nc(C)c(CCN(C)C(=O)Nc2cc(OC)c(OC)c(OC)c2)c1C | inactive: 1.01% |  |
| c1ccc(OCc2nc3ccccc3s2)cc1 |  | inconclusive: 15.8 µM [signal inhibitor, partial curve] |
| CCOC(=O)c1cnn(-c2ccc(C(=O)Nc3cccc(C(C)=O)c3)cc2)c1N | inactive: 0.171% |  |
| COc1ccc2cc(C(=O)NCc3ccc4c(c3)CCN4C(=O)c3ccc(F)cc3)[nH]c2c1 | inconclusive: -0.425% [signal inhibitor] |  |

| Structure (SMILES) | IkBa stabilization activation | Potency |
| --- | --- | --- |
| Cc1ccc(-c2nnn(CC(=O)N(CC(=O)NC(C)C)c3cnc4ccccc4c3)n2)o1 | inactive: 6.59% |  |
| COc1cc(C)cc2oc(=O)c(CC(=O)NCCc3ccc(Cl)cc3)c(C)c12 | inconclusive: 10.8% [signal activator] |  |
| Fc1cccc(-c2nnn3c2nc(NCCc2ccccc2)c2ccccc23)c1 |  | inconclusive: 3.98 µM [signal inhibitor, full curve] |
| N#CCSc1nc(Nc2ccc3c(c2)OCO3)c2ccccc2n1 | inconclusive: -2.5% [signal inhibitor] |  |
| CCCCN(C)CC(O)Cn1cc(/C=C/C(=O)c2ccc(OC)c(OC)c2)c2ccccc21 (centres undefined) | inconclusive: 4.58% [signal inhibitor] |  |
| Cc1ccc(-c2nc(S(=O)(=O)c3ccc(Cl)cc3)c(N3CCCCC3)o2)cc1 | inconclusive: 2.98% [signal inhibitor] |  |
| COc1ccc(CNC(=O)Cn2nnc(-c3ccccc3F)n2)cc1 | inconclusive: 3.37% [signal inhibitor] |  |
| O=c1c(-c2cccs2)nc2cnc(Oc3cccc(Cl)c3)nc2n1C[C@H]1CCCO1 | inactive: 0.427% [at 11.4 µM, scaled: untreated 0%, proteasome inhibitor 100%] |  |
| COc1ccc(Cl)cc1C(=O)Nc1ccc2oc(-c3ccc(C(C)(C)C)cc3)nc2c1 | inconclusive: 3.42% [signal inhibitor] |  |
| CCn1c(N)c(C(=O)NC2CCCCC2)sc1=S | inconclusive: 15% [signal inhibitor] |  |
| COc1ccccc1N1CCN(C(=O)CN(c2cc(C)cc(C)c2)S(C)(=O)=O)CC1 | inactive: 0.201% |  |
| CCCSC1=NC2(CCN(C(=O)NC3CCCCC3)CC2)N=C1c1ccccc1 | inconclusive: 2.25% [signal inhibitor] |  |
| Cc1c(C(=O)OCC(C)C)[nH]c2c1C(=O)CC(c1ccco1)C2 (centres undefined) |  | inconclusive: 6.31 µM [signal activator, partial curve] |
| Fc1cccc(Cl)c1CNc1n[nH]c(-c2ccco2)n1 | inconclusive: 1.28% [signal inhibitor] |  |
| Cn1c(C(=O)NCc2ccccn2)cc2c(=O)n3ccccc3nc21 | inactive: -0.254% |  |
| Cc1ccc(Cl)cc1N1CCN(C(=O)c2cccn2-c2nnc(N3CCCCC3)s2)CC1 | inconclusive: 17.1% [signal inhibitor] |  |
| CCOC(=O)CCC(NC(=O)c1ccc(NCN2C(=O)c3ccccc3C2=O)cc1)C(=O)OCC (centres undefined) | inactive: 0.908% |  |
| O=C(Nc1c(C(=O)O)oc2ccc(Br)cc12)c1ccccc1 | inconclusive: 5.38% [signal inhibitor] |  |
| CC(C)CCNC(=O)c1ccc(Cn2c(SCC(=O)NC(C)C)nc3ccccc3c2=O)cc1 | inactive: -0.821% |  |
| CC(=O)Nc1ccc(S(=O)(=O)N2CCSC2c2ccccc2Cl)cc1 (centres undefined) | inconclusive: 13.1% [signal inhibitor] |  |
| COc1ccc(N2CCN(c3nc(NCCc4ccc(OC)c(OC)c4)nc(OC)n3)CC2)cc1 | inconclusive: 3.52% [signal inhibitor] |  |
| Cc1c(-c2ccccc2)c(=O)oc2c(CN3CCN(C)CC3)c(O)ccc12 | inactive: -5.79% |  |
| N#C/C(=C\c1ccc(O)c(O)c1)C(=O)c1ccc(O)c(O)c1 | inactive: -9.97% |  |

| Structure (SMILES) | IkBa stabilization activation | Potency |
| --- | --- | --- |
| COc1ccc(NC(=O)Cc2csc(COc3cccc(C)c3)n2)cc1OC | inconclusive: 2.59% [signal inhibitor] |  |
| Cc1ccc(C)c(S(=O)(=O)c2nnn3c2nc(NCc2cccs2)c2sccc23)c1 | inconclusive: 0.869% [signal inhibitor] |  |
| Cc1ccc(NC(=O)CN(C)S(=O)(=O)c2ccc3c(c2)CCC(=O)N3)c(C)c1 | inconclusive: -0.225% [signal inhibitor] |  |
| Cc1cc(NC(=O)CSc2nc(-c3ccco3)cc(C(F)(F)F)n2)no1 | inactive: 8.42% |  |
| Cc1ccc(CN2CCCn3nc(C(=O)NCc4ccccc4Cl)cc3C2=O)cc1 | inconclusive: 1.11% [signal inhibitor] |  |
| CCCN1CCN(c2ncc3c(n2)CCN(Cc2ccc(OC)c(OC)c2OC)C3)CC1 | inactive: 0.583% |  |
| COc1ccccc1-c1noc(-c2ccc(N(C)Cc3ccccc3)c([N+](=O)[O-])c2)n1 | inconclusive: 2.69% [signal inhibitor] |  |
| Cn1nnnc1SCC(=O)Nc1ccc(Br)cc1Cl | inactive: -0.528% |  |
| CCCCN(CC)C(=O)CCn1c(=O)c2cccn2c2cccnc21 | inconclusive: 1.44% [signal inhibitor] |  |
| COc1ccccc1C(=O)c1c(N)c(-c2nc(-c3ccccc3)cs2)c2ccccn12 | inconclusive: 15.4% [signal inhibitor] |  |
| Clc1ccc2nc(N3CCCCC3)[nH]c2c1 | inactive: 5.81% |  |
| CCOc1ccccc1C(=O)Nc1ccc2nc(N3CCN(c4ncccn4)CC3)cc(C)c2c1 | inconclusive: 1.37% [signal inhibitor] |  |
| CCCCNC(=O)CN1C(=O)CSc2ccc(S(=O)(=O)N3CCC(C)CC3)cc21 | inconclusive: -0.00469% [signal inhibitor] |  |
| Cc1cc(Cl)ccc1Nc1sc(C(=O)c2cc3cc(Cl)ccc3o2)c(N)c1C#N | inactive: 6.6% [at 11.4 µM, scaled: untreated 0%, proteasome inhibitor 100%] |  |
| CC(=O)c1cccc(N(C(=O)Cn2nnc3ccccc32)C(C(=O)NCc2ccccc2)c2ccc(F)cc2)c1 (centres undefined) | inactive: -2.7% |  |
| COc1cccc(NC(=O)CN(Cc2ccccc2)S(=O)(=O)c2ccc3nc(C)sc3c2)c1 | inconclusive: 8.16% [signal inhibitor] |  |
| COc1ccc(-c2nc3cnc(OCc4ccccc4)nc3n(CCC#N)c2=O)cc1 | inactive: -0.552% [at 11.4 µM, scaled: untreated 0%, proteasome inhibitor 100%] |  |
| CC1Cc2ccccc2N1C(=O)CSc1nc2ccccc2o1 (centres undefined) | inconclusive: -0.846% [signal inhibitor] |  |
| CCOc1ccc(CNCc2c(C(=O)O)c(C)n(Cc3ccc(F)cc3Cl)c2C)cc1 | inactive: 2.61% |  |
| O=C(NCc1ccco1)c1nn(-c2ccccc2)c(=O)c2ccccc12 |  | inconclusive: 31.6 µM [signal inhibitor, partial curve] |
| CN(C)c1ccc(-c2nnc(-c3ccc(S(=O)(=O)C(F)F)cc3)o2)cc1 | inactive: 0.549% |  |
| Cc1nn(CCCC(=O)NCc2cccc(F)c2)c(=O)c2nn(-c3ccccc3)c(C)c12 | inconclusive: 3.48% [signal inhibitor] |  |
| CCOC(=O)c1c(S(=O)(=O)NCC(=O)Nc2ccc(Cl)c(C(F)(F)F)c2)c(C)n(C)c1C | inconclusive: 0.073% [signal inhibitor] |  |
